# Some of the results follow. Cut-off read from the data, not from the text of the source: active = 3.2 or more and inactive = the rest. The signal is at background level for most entries.
# B1: HCLS1_HUMAN_222 (peptide)
# chain: MEAPTTAYKKTTPIE
# B2: GRB2_HUMAN_7 (peptide)
# chain: GMEAIAKYDFKATAD
# B3: IL4RA_HUMAN_631 (peptide)
# chain: ASSGEEGYKPFQDLI
# B4: HCK_HUMAN_522_YA (peptide)
# chain: ATATESQYQQQPGGG
# B5: HCLS1_HUMAN_140 (peptide)
# chain: KSAVGFDYKGEVEKH
# B6: IL1R1_HUMAN_496 (peptide)
# chain: ELEKIQDYEKMPESI
# B7: INSR_HUMAN_992 (peptide)
# chain: DGPLGPLYASSNPEY
# B8: HSP90AB1_HUMAN_301 (peptide)
# chain: DDITQEEYGEFYKSL
# B9: IL2RB_HUMAN_384 (peptide)
# chain: ACQVYFTYDPYSEED
# B10: GTF2I_HUMAN_503 (peptide)
# chain: EAHPNDLYVEGLPEN
# B11: HS90A_HUMAN_313 (peptide)
# chain: NEEYGEFYKSLTNDW
# B12: HNRH1_HUMAN_246 (peptide)
# chain: GYGGYDDYNGYNDGY
# B13: HSP74_HUMAN_660 (peptide)
# chain: EDTENWLYEDGEDQP
# B14: GPDA_HUMAN_326 (peptide)
# chain: FPLFMAVYKVCYEGQ
# B15: INSR_HUMAN_1190 (peptide)
# chain: DIYETDYYRKGGKGL
# B16: INSR_HUMAN_1361 (peptide)
# chain: SYEEHIPYTHMNGGK
# B17: IGF1R_HUMAN_980_YA (peptide)
# chain: AASVNPEYFSAADVA
# B18: HNRH1_HUMAN_246_YA (peptide)
# chain: GAGGADDYNGANDGA
# B19: INAR2_HUMAN_512 (peptide)
# chain: DVDLGDGYIMRGGGG
# B20: HCLS1_HUMAN_378 (peptide)
# chain: EPEPENDYEDVEEMD
# B21: HNF4A_HUMAN_23 (peptide)
# chain: SAALDPAYTTLEFEN
# B22: INSR_HUMAN_992_YA (peptide)
# chain: DGPLGPLYASSNPEA
# B23: IKBA_HUMAN_42 (peptide)
# chain: DSMKDEEYEQMVKEL
# B24: HNF4A_HUMAN_288 (peptide)
# chain: IDDNEYAYLKAIIFF
# B25: GUCY1B3_HUMAN_192 (peptide)
# chain: ESKEEDFYEDLDRFE
# B26: IL4RA_HUMAN_603 (peptide)
# chain: GPPGEAGYKAFSSLL
# B27: GTF2I_HUMAN_248 (peptide)
# chain: EESEDPDYYQYNIQA
# B28: HGS_HUMAN_334_YA (peptide)
# chain: ARALNRNYWEKKQEE
# B29: AKT1_HUMAN_176 (peptide)
# chain: EKATGRYYAMKILKK
# B30: HGS_HUMAN_308 (peptide)
# chain: APPASSLYSSPVNSS
# B31: HSP90AA1_HUMAN_38 (peptide)
# chain: SLIINTFYSNKEIFL
# B32: AKT2_HUMAN_178_YA (peptide)
# chain: EKATGRAYAMKILRK
# B33: GRB2_HUMAN_209 (peptide)
# chain: TGMFPRNYVTPVNRN
# B34: IGF1R_HUMAN_1280 (peptide)
# chain: GFREVSFYYSEENKL
# B35: 2ABD_HUMAN_305_YA (peptide)
# chain: KFSHSGRYMMTRDAL
# B36: IGF1R_HUMAN_980 (peptide)
# chain: YASVNPEYFSAADVY
# B37: IF2P_HUMAN_134 (peptide)
# chain: AKPKVEMYSGSDDDD
# Target: SHP2 C-SH2 domain E139D
# Experiment: enrichment score (SH2-bound / input frequency) (ratio); bacterial display of known human phosphotyrosine sites (pTyr-Var adds point mutants) read by sequencing; higher = stronger binding; tyrosines were phosphorylated by kinases first
# Conditions: peptide library: Human pTyr
# 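Note: displayed peptides selected on beads carrying the immobilized SH2 domain, with library peptides lacking any tyrosine serving as negative controls.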
row,Binder,enrichment score
1,B1,inactive: 0.778
2,B2,inactive: 0.927
3,B3,inactive: 0.84
4,B4,inactive: 0.673
5,B5,inactive: 0.683
6,B6,inactive: 1.27
7,B7,inactive: 0.439
8,B8,inactive: 1.18
9,B9,inactive: 2.02
10,B10,inactive: 1.1
11,B11,inactive: 0.692
12,B12,inactive: 0.577
13,B13,inactive: 1.32
14,B14,inactive: 2.43
15,B15,inactive: 0.909
16,B16,inactive: 1.11
17,B17,inactive: 0.728
18,B18,inactive: 0.539
19,B19,inactive: 0.639

row,Binder,enrichment score
1,B20,inactive: 0.971
2,B21,inactive: 0.906
3,B22,inactive: 0.702
4,B23,inactive: 0.979
5,B24,inactive: 2.23
6,B25,inactive: 1.16
7,B26,inactive: 0.684
8,B27,inactive: 1.83
9,B28,inactive: 1.21
10,B29,inactive: 2.8
11,B30,inactive: 0.647
12,B31,active: 3.49
13,B32,inactive: 1.37
14,B33,inactive: 0.65
15,B34,inactive: 1.59
16,B35,inactive: 2.98
17,B36,inactive: 1.02
18,B37,inactive: 1.15

# Target: SHP2 C-SH2 domain wild-type
# Experiment: as above
# Conditions: peptide library: Human pTyr
row,Binder,enrichment score
1,B1,inactive: 0.911
2,B2,inactive: 0.78
3,B3,inactive: 0.533
4,B4,inactive: 0.667
5,B5,inactive: 0.726
6,B6,inactive: 1.03
7,B7,inactive: 0.498
8,B8,inactive: 1.31
9,B9,inactive: 1.68
10,B10,inactive: 0.68
11,B11,inactive: 0.587
12,B12,inactive: 0.546
13,B13,inactive: 1.08
14,B14,inactive: 2.21
15,B15,inactive: 0.701
16,B16,inactive: 1.14
17,B17,inactive: 0.778
18,B18,inactive: 0.486
19,B19,inactive: 0.528

row,Binder,enrichment score
1,B20,inactive: 1.19
2,B21,inactive: 0.76
3,B22,inactive: 0.52
4,B23,inactive: 1.13
5,B24,inactive: 1.82
6,B25,inactive: 1.6
7,B26,inactive: 0.569
8,B27,inactive: 1.67
9,B28,inactive: 1.3
10,B29,active: 3.31
11,B30,inactive: 0.474
12,B31,active: 4.44
13,B32,inactive: 1.16
14,B33,inactive: 0.547
15,B34,inactive: 1.57
16,B35,inactive: 3.06
17,B36,inactive: 2.3
18,B37,inactive: 0.989

# Target: SHP2 N-SH2 domain L43F
# Experiment: as above
# Conditions: peptide library: Human pTyr
row,Binder,enrichment score
1,B1,inactive: 1.14
2,B2,inactive: 0.837
3,B3,inactive: 0.596
4,B4,inactive: 0.626
5,B5,inactive: 0.785
6,B6,inactive: 1.11
7,B7,inactive: 0.877
8,B8,inactive: 1.39
9,B9,inactive: 1.37
10,B10,inactive: 0.734
11,B11,inactive: 0.85
12,B12,inactive: 0.491
13,B13,inactive: 1.12
14,B14,inactive: 2.5
15,B15,inactive: 0.845
16,B16,inactive: 0.558
17,B17,inactive: 0.618
18,B18,inactive: 0.49
19,B19,inactive: 0.567

row,Binder,enrichment score
1,B20,inactive: 0.956
2,B21,active: 3.79
3,B22,inactive: 0.799
4,B23,inactive: 0.863
5,B24,inactive: 1.97
6,B25,inactive: 1.43
7,B26,inactive: 0.516
8,B27,inactive: 1.5
9,B28,inactive: 1.3
10,B29,inactive: 3.18
11,B30,inactive: 0.512
12,B31,active: 3.62
13,B32,inactive: 1.24
14,B33,inactive: 0.463
15,B34,inactive: 1.33
16,B35,inactive: 2.93
17,B36,inactive: 0.672
18,B37,inactive: 1.12

# Target: SHP2 N-SH2 domain T42A
# Experiment: as above
# Conditions: peptide library: Human pTyr
row,Binder,enrichment score
1,B1,inactive: 0.734
2,B2,inactive: 0.702
3,B3,inactive: 0.407
4,B4,inactive: 0.604
5,B5,inactive: 0.672
6,B6,inactive: 1.3
7,B7,inactive: 0.451
8,B8,inactive: 1.11
9,B9,inactive: 2.2
10,B10,inactive: 0.717
11,B11,inactive: 0.852
12,B12,inactive: 0.443
13,B13,inactive: 1.08
14,B14,inactive: 2.18
15,B15,inactive: 0.731
16,B16,inactive: 0.586
17,B17,inactive: 0.714
18,B18,inactive: 0.546
19,B19,inactive: 0.509

row,Binder,enrichment score
1,B20,inactive: 0.966
2,B21,active: 4.06
3,B22,inactive: 0.601
4,B23,inactive: 0.883
5,B24,inactive: 1.81
6,B25,inactive: 1.39
7,B26,inactive: 0.663
8,B27,inactive: 1.55
9,B28,inactive: 1.37
10,B29,inactive: 2.43
11,B30,inactive: 0.607
12,B31,active: 3.98
13,B32,inactive: 1.32
14,B33,inactive: 0.515
15,B34,inactive: 1.27
16,B35,inactive: 3.06
17,B36,inactive: 0.622
18,B37,inactive: 1.03

# Target: SHP2 N-SH2 domain T52S
# Experiment: as above
# Conditions: peptide library: Human pTyr
row,Binder,enrichment score
1,B1,inactive: 0.819
2,B2,inactive: 0.897
3,B3,inactive: 0.584
4,B4,inactive: 0.654
5,B5,inactive: 0.766
6,B6,inactive: 1.26
7,B7,inactive: 0.52
8,B8,inactive: 1.2
9,B9,inactive: 1.56
10,B10,inactive: 0.907
11,B11,inactive: 0.389
12,B12,inactive: 0.648
13,B13,inactive: 1.37
14,B14,inactive: 1.98
15,B15,inactive: 0.666
16,B16,inactive: 0.699
17,B17,inactive: 0.936
18,B18,inactive: 0.56
19,B19,inactive: 0.481

row,Binder,enrichment score
1,B20,inactive: 1.12
2,B21,inactive: 3.19
3,B22,inactive: 0.627
4,B23,inactive: 1.2
5,B24,inactive: 1.9
6,B25,inactive: 1.45
7,B26,inactive: 0.661
8,B27,inactive: 2.11
9,B28,inactive: 1.37
10,B29,active: 3.43
11,B30,inactive: 0.54
12,B31,active: 3.72
13,B32,inactive: 1.14
14,B33,inactive: 0.475
15,B34,inactive: 1.48
16,B35,active: 3.38
17,B36,inactive: 0.593
18,B37,inactive: 1.31

# Target: SHP2 N-SH2 domain wild-type
# Experiment: as above
# Conditions: peptide library: Human pTyr
row,Binder,enrichment score
1,B1,inactive: 0.968
2,B2,inactive: 0.778
3,B3,inactive: 0.645
4,B4,inactive: 0.627
5,B5,inactive: 0.764
6,B6,inactive: 1.43
7,B7,inactive: 0.44
8,B8,inactive: 1.45
9,B9,inactive: 1.98
10,B10,inactive: 0.855
11,B11,inactive: 1.25
12,B12,inactive: 0.593
13,B13,inactive: 1.27
14,B14,inactive: 2.63
15,B15,inactive: 0.869
16,B16,inactive: 0.917
17,B17,inactive: 0.69
18,B18,inactive: 0.545
19,B19,inactive: 0.476

row,Binder,enrichment score
1,B20,inactive: 1.35
2,B21,inactive: 0.963
3,B22,inactive: 0.519
4,B23,inactive: 1
5,B24,inactive: 2.12
6,B25,inactive: 2.14
7,B26,inactive: 0.659
8,B27,inactive: 1.88
9,B28,inactive: 1.65
10,B29,active: 4.27
11,B30,inactive: 0.626
12,B31,active: 4.62
13,B32,inactive: 1.45
14,B33,inactive: 0.884
15,B34,inactive: 1.72
16,B35,active: 3.92
17,B36,inactive: 0.747
18,B37,inactive: 1.32

# From the supplement of paper PMC10369915
